± gives the standard deviation of the averaged measurements. The list shows a part of the results.
System: PfAP2-I AP2 domain 3 (GST-tagged)
Assay: gcPBM binding intensity (ln(normalized median fluorescence intensity)); higher = stronger DNA binding
Summary of the method: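 GST-fused DNA-binding domains of P. falciparum, expressed in E. coli, were applied at about 25 μg on average for 1 h to an Agilent 4 × 180k array of primer-extended double-stranded 36-bp intergenic genomic probes and negative controls. Binding intensity is the highest Masliner-normalised natural-log median intensity across replicate spots of either probe orientation, measured with Alexa488 anti-GST antibody and a 488 nm scan.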

In order of falling “gcPBM binding intensity (ln)” value:
1. ATGCATATGTTTATTGCACACACCAAAAAGAAAACA [CACACA_site403]  10.2 ± 0.38
2. TATAATAACAATTTAGTGCATATAATAATATTTTAT  10 ± 0.19
3. GTAAAAATACAAAAGGTGCTCAAACAATATAATACA  9.675 ± 0.049
4. CATTTAGAATAAGGCACACATAAAGAACACTTTCCA [CACACA_site130]  9.62 ± 0.36
5. TGAACAGACGAGCACACACACACATATATATATATA [CACACA_site1019]  9.6 ± 0.45
6. AAAATTAAATTATAAGCACACACATATATATATATA [CACACA_site9105]  9.54 ± 0.35
7. TATTCTGGTGTAAATGCACACAGAAGAAGAAAAAAA [CACACA_site9225]  9.53 ± 0.014
8. TAAATTTAGAAACACACACACATATATATATATATA [CACACA_site847]  9.36 ± 0.38
9. AGAAAAAAGAGGGATACACACAAACATATATATATA [CACACA_site5269]  9.285 ± 0.049
10. TACAAACTATGATGCACACATATATATATGTATACA [CACACA_site1226]  9.21 ± 0.15
11. AATTTAAACAAGGATCCACACACCCCAAAAAAAAAA [CACACA_site8125]  8.88 ± 0.19
12. GCTTTTGAAAATATACACATGTTAGGAATACAGGGG [TGCATGCA_negctrl_site480]  8.6 ± 0.39
13. TACATACCTATATACACATGCATATTTACATATATT [TGCATGCA_site206]  8.5 ± 0.88
14. TAAGTCGTTATAAGCACACACATAAATAAAAATAAA [CACACA_site1574]  8.495 ± 0.035
15. TATATATATTTATATGCATGTAATATATTTGTATTG [TGCATGCA_site323]  8.47 ± 0.64
16. AAAATGTGCCCACGCGTACACACAAAAAAAGAAAAA [CACACA_site2004]  8.455 ± 0.035
17. AATAAATAAAAAAAAAAAAAAAAAAAAAAAAAAAAA [XGTACX_negctrl_site343]  8.32 ± 0.93
18. TTTATATTATTTTAAACATGCACAAGTATAATTTAT [TGCATGCA_site233]  8.25 ± 0.52
19. TATAAACCCACCTACACACACAACGTAAATGCATTG [CACACA_site2238]  8.23 ± 0.49
20. AACATACACATATACACACACACATATATACATATA [CACACA_site1093]  8.21 ± 0.3
21. TTTTTTTTTTTTGTAATACACACCACTATATGTTAT [CACACA_site1844]  8.15 ± 0.73
22. GCCATTAATTTATACACACACATTATGATTTTTTAT [CACACA_site754]  8.14 ± 0.65
23. CCTGAACACATACATACACACACACTAATAAAAAAA [CACACA_site8023]  8.13 ± 0.29
24. AAAAAAAAAAAAACATGTACATAAATGTAAAAAAGT [XGTACX_site8158]  8.09 ± 0.52
25. ACATATAAAATGTATACACACAAATATTACAGAGAT [CACACA_site4920]  8 ± 0.59
26. TGTGGGAATAACCACACACACACACGCATATAAATA [CACACA_site7634]  7.97 ± 0.5
27. AGTTTTATAAAAATATGTACTTATATACACATGTAT [XGTACX_site4022]  7.96 ± 0.4
28. ATATATTTATATAGGTGTACATATTTTGCTATTCAA [XGTACX_site5199]  7.95 ± 0.42
29. ATATATACATATATATGTACGTATATTTTTATTTCT [XGTACX_site6198]  7.94 ± 0.52
30. TTCTGTTGGAATATATGTACATAATAAAAAAAAATA [XGTACX_site1741]  7.93 ± 0.37
31. GTACATTGTAAGGATGGAAAAGCTAAACATTATAAT [XGTACX_negctrl_site339]  7.93 ± 0.61
32. AATGGATTGATAAGTGGTACACACATATATATTATA [XGTACX_site6086]  7.91 ± 0.35
33. TGTAGTCTGGAGAAAAGTACACAGTATCTGGTAACA [XGTACX_site2010]  7.86 ± 0.49
34. ATACCAAATGAATAATGTACATACGAACATACATAT [XGTACX_site1301]  7.84 ± 0.42
35. TGTTCTCTTCTTTTTTATTTTCCAAAGTAATAAGTT [TGCATGCA_negctrl_site424]  7.84 ± 0.69
36. CATAAATCAGCCATAACACACATACATAAATACATA [CACACA_site4380]  7.83 ± 0.46
37. TTTTCATATGAACAATGTACACATCGTATAATTCTG [XGTACX_site4756]  7.8 ± 0.53
38. TACATACAGATATATACACACATATATAATATATAT [CACACA_site4376]  7.79 ± 0.42
39. TCAATTTTTTAATGTTGTACTTTGTAAAAAAAAATA [XGTACX_site8481]  7.77 ± 0.28
40. AAGGACACCTTCAAAACACACATACAAATAAATAGA [CACACA_site5771]  7.75 ± 0.52
41. ATACATATTAAAGGATGTACACTTATATTTTTTAGA [XGTACX_site5406]  7.75 ± 0.25
42. AAGGGTTATAAAAATTGTACTTTTTTTATTTTTTTT [XGTACX_site1313]  7.72 ± 0.56
43. CTCATAAAAATAACGTTAACATAAATTTATTGTGAT [XGTACX_negctrl_site169]  7.7 ± 0.53
44. GAATATTAAACAAACACACACACATATATTTATATA [CACACA_site7563]  7.66 ± 0.4
45. CAACCTCATAATATTTAACACACAAAATTATATGTA [CACACA_site8496]  7.66 ± 0.2
46. TTAATTATAATTATATGTACGAACTTTTTTTTTTTT [XGTACX_site6586]  7.66 ± 0.25
47. TATATAATATATATGACACACATATTTATATAAATA [CACACA_site4054]  7.61 ± 0.36
48. TATATGTCAATATCTACACACATATATATAATTATT [CACACA_site3156]  7.61 ± 0.43
49. ATTTAACAACTTCAAACACACAATATAGATTTATAT [CACACA_site7067]  7.6 ± 0.54
50. AATATAAAACATATCACACATATGTATTTATGTATA [CACACA_site5763]  7.58 ± 0.31
51. ATATTTTTAACCAAGGACACAATTCTTGTATTGTTA [CACACA_negctrl_site1326]  7.57 ± 0.62
52. AATAATTAAAATTATCTACACACCTTTATAAATATA [CACACA_site9300]  7.54 ± 0.61
53. ATTTTTTTTCTTTTTTTTTTACATTTTTTTCTTTTT [CACACA_negctrl_site1289]  7.5 ± 0.71
54. AATTAAGTTAAACATTAAAAAAAACAAAAAATTAAA [CACACA_negctrl_site1333]  7.42 ± 0.46
55. TATGGCAAAACATTCACACATATTTATATATGTGTA [CACACA_site5588]  7.38 ± 0.42
56. TTATCTTAATTGTGATTATAAAGATATTCTTTCTAT [GTGCAC_negctrl_site410]  7.17 ± 0.33

— the supplement of paper PMC11417369
